Assay results from PubChem BioAssay (Tox21).
Values joined by “and” are separate entries in the source; they are usually repeats but may differ in a detail not shown here. Equal values may be shown once. The inconclusive results got no clear call from the source; some entries with a clear call stand among them for comparison. Where the call is inconclusive, the potency comes from a doubtful curve fit. Some structures have more than one record in an assay (separate samples or runs), and their calls can disagree. Active and inactive are the calls of the source. Calls follow the shape of the dose curve; as a rule, active = well fitted cell-killing curve with a large enough effect in the repeat runs (not every such curve was filed as active); inconclusive = weak or mixed curves, or effect the other way; inactive = no such curve, though single readings can be large or run the other way.

assay: qHTS assay to identify small molecule antagonists of the estrogen related receptor signaling pathway with the pleiotropic PPARgamma coactivator (PGC) from Tox21 10K library - cell viability counter screen (AID 1224840); details: PGC/ERR reporter cells viability, CellTiter-Fluor, 17.5 h; series mostly up to 92.4 µM; also: nearly all actives have a fitted effect of over 40% in size
Text: National Center for Advancing Translational Sciences [NCATS]
NIH Chemical Genomics Center [NCGC]
U.S. Environmental Protection Agency [EPA]
National Institutes of Environmental Health Sciences [NIEHS]
National Toxicology Program [NTP]
U.S. Food and Drug Administration [FDA]
Estrogen related receptors (ERRs), the first orphan nuclear receptors discovered, play an important role in the control of cellular energy metabolism. ERRs are required for high-energy production in response to the environmental challenges. The pleiotropic PPARgamma coactivator (PGC) is a major partner of ERR and a key regulator in energy homeostasis. Together they have been implicated in the etiology of metabolic disorders such as Type 2 diabetes and metabolic syndrome. ERR-alpha was also identified as an adverse marker for breast cancer progression; ERR-alpha-positive tumors have a poor prognosis. To screen and to identify environmental compounds that perturb the ERR and PGC/ERR signaling pathways could provide valuable information for potential therapeutic or preventive measures in the treatment of metabolic disease. To differentiate true PGC/ERR antagonists or agonist from cytotoxic substances, the assay is multiplexed with cell viability assay.
Tox21 Assay Protocol Summary:
The PGC/ERR cells were dispensed at 2,000 cells/5 ul/well in 1536-well white plates using a Multidrop dispenser. After the assay plates were incubated at a 37 C/5% CO2 incubator for 6 hours, 23 nL of compounds dissolved in DMSO, positive and negative controls or DMSO only was transferred to the assay plate by a pin tool. The plates were incubated at 37 C for 17.5 hours. 1 ul/well of CellTiter-Fluor reagent was added into the assay plates using a Flying Reagent Dispenser. After 30-minute incubation at 37 C/5% CO2, the fluorescence intensity in the plates was measured using a ViewLux plate reader.
% is scaled to controls: 0 for no effect and ±100 for the full control effect; potency is read from the fitted curve at half-maximal effect; tags tell the direction and shape of the fitted curve.

SMILES	Potency	viability change, negative = cytotoxic
OC(c1ccc(Cl)cc1)(c1ccc(Cl)cc1)c1cccnc1	inconclusive: 61.1 µM [cytotoxic, partial curve]	
CCCCCCCCCC[N+](C)(C)CCCCCCCCCC	active: 27.3 µM	
O=C(Nc1ccc(Br)cc1)c1cc(Br)cc(Br)c1O	inconclusive: 17.2 µM [cytotoxic, full curve]	
COP(=O)(OC)OC(Br)C(Cl)(Cl)Br (stereo not given)	inconclusive: 77 µM [cytotoxic, partial curve] and inconclusive: 61.1 µM [cytotoxic]	
CC1CCC(C(C)C)C(OC(=O)c2ccccc2N)C1 (stereo not given)	inconclusive: 67.6 µM [cytotoxic, partial curve]	
c1ccc(P(c2ccccc2)c2ccccc2)cc1	inconclusive: 77 µM [cytotoxic, partial curve, poor fit]	
CCCCCCCCn1sccc1=O	active: 30.7 µM and active: 11.4 µM	
CCCCCCCCCCCCCCCC[N+](C)(C)C	active: 61.1 µM	
C[C@H]1O[C@@H](O[C@H]2[C@@H](O)C[C@H](O[C@H]3[C@@H](O)C[C@H](O[C@H]4CC[C@@]5(C)[C@H](CC[C@@H]6[C@@H]5CC[C@]5(C)[C@@H](C7=CC(=O)OC7)CC[C@]65O)C4)O[C@@H]3C)O[C@@H]2C)C[C@H](O)[C@@H]1O	inconclusive: 48.9 nM [cytotoxic, full curve] and inconclusive: 94.4 nM [cytotoxic, full curve]	
c1ccc2c(c1)Sc1ccccc1N2CC1CN2CCC1CC2 (stereo not given)	inconclusive: 29.8 µM [cytotoxic, partial curve]	
O=C1c2ccccc2C(=O)c2ccccc21		inactive: 4.21% [at 19 µM]
Oc1cc(Cl)c(Cl)c(Cl)c1	inconclusive: 65 µM [cytotoxic, single point]	
NC1CCC(CC2CCC(N)CC2)CC1 (stereo not given)	inconclusive: 60.1 µM [cytotoxic, partial curve]	
Oc1cc(Cl)c(Cl)cc1Cl	inconclusive: 76.3 µM [cytotoxic, single point] and inconclusive: 68.6 µM [cytotoxic]	
CCCCCCCCCCCCCCCCn1cc[n+](C)c1	inconclusive: 44.2 µM [cytotoxic, partial curve] and active: 61.7 µM and active: 27.4 µM	
CCc1nn(C)c(C(=O)NCc2ccc(C(C)(C)C)cc2)c1Cl	inconclusive: 48.6 µM [cytotoxic, partial curve]	
C[C@H]1CCCC(=O)CCC/C=C/c2cc(O)cc(O)c2C(=O)O1	active: 23.4 µM and inconclusive: 20 µM [cytotoxic, partial curve, poor fit]	
Clc1ccc(C(c2ccc(Cl)cc2)C(Cl)(Cl)Cl)cc1	inconclusive: 69.1 µM [cytotoxic]	
O=S1OCC2C(CO1)C1(Cl)C(Cl)=C(Cl)C2(Cl)C1(Cl)Cl (stereo not given)	inconclusive: 68.7 µM [cytotoxic] and inconclusive: 68.5 µM [cytotoxic, single point]	
Oc1cccc2cccnc12	inconclusive: 13.8 µM [cytotoxic, full curve] and inconclusive: 46 µM [cytotoxic]	

SMILES	Potency	viability change, negative = cytotoxic
ClC1=C(Cl)C2(Cl)C(CBr)CC1(Cl)C2(Cl)Cl (stereo not given)	inconclusive: 68.6 µM [cytotoxic, single point]	
O=[N+]([O-])c1cc(C(F)(F)F)c(Cl)c([N+](=O)[O-])c1Nc1ncc(C(F)(F)F)cc1Cl	active: 8.63 µM	
C[C@@H]1O[C@@H](O[C@H]2C[C@@H](O)[C@]3(CO)[C@H]4[C@H](O)C[C@]5(C)[C@@H](C6=CC(=O)OC6)CC[C@]5(O)[C@@H]4CC[C@]3(O)C2)[C@H](O)[C@H](O)[C@H]1O	inconclusive: 103 nM [cytotoxic, full curve] and inconclusive: 150 nM [cytotoxic, full curve]	
Cc1ccc(N)c(N)c1	inconclusive: 48.7 µM [cytotoxic, partial curve, poor fit]	
O=[N+]([O-])c1cc(C(F)(F)F)c(Cl)c([N+](=O)[O-])c1Cl	active: 48.6 µM	
N#Cc1c2ccccc2cc2ccccc12	inconclusive: 34.3 µM	
CCCCCCCCCCCCCCCCCCn1cc[n+](C)c1	active: 30.5 µM	
O=P(OCC(Br)CBr)(OCC(Br)CBr)OCC(Br)CBr (stereo not given)	inconclusive: 43.8 µM [cytotoxic, partial curve]	
C=CCC1=C(C)[C@@H](OC(=O)[C@@H]2[C@@H](C=C(C)C)C2(C)C)CC1=O	inconclusive: 48.6 µM [cytotoxic, partial curve]	
CCCCC/C=C\C/C=C\C/C=C\C/C=C\CCCC(=O)NCC(=O)O	inactive	
CC(C)C1CCC(Cc2ccc(Cl)cc2)C1(O)Cn1cncn1 (stereo not given)	inconclusive: 30.3 µM [cytotoxic, partial curve]	
Clc1ccc(COC(Cn2ccnc2)c2ccc(Cl)cc2Cl)cc1 (stereo not given)	active: 50.8 µM and active: 54.3 µM and inconclusive: 29.8 µM [cytotoxic, partial curve]	
C(=NC1CCCCC1)=NC1CCCCC1	inconclusive: 17.2 µM [cytotoxic, full curve]	
CC(C)N1C(=O)N(c2ccccc2)CSC1=NC(C)(C)C	inconclusive: 61.1 µM [cytotoxic, partial curve, poor fit]	
CCC(C)c1cc([N+](=O)[O-])cc([N+](=O)[O-])c1O (stereo not given)	active: 17.2 µM	
CCCCCCCCCCCCCCn1cc[n+](C)c1	active: 27.4 µM and active: 30.3 µM and inconclusive: 76.9 µM [cytotoxic, partial curve, poor fit]	
C[C@H]1CC[C@@H]2[C@@H](C)[C@H]3[C@H](C[C@H]4[C@@H]5CC=C6CC(O[C@@H]7O[C@H](CO)[C@H](O)[C@H](O[C@@H]8O[C@H](CO)[C@@H](O)[C@H](O)[C@H]8O)[C@H]7O[C@H]7O[C@@H](C)[C@H](O)[C@@H](O)[C@H]7O)CC[C@]6(C)[C@H]5CC[C@]34C)N2C1 (stereo not given in full)	active: 22.4 µM	
N#Cc1c[nH]cc1-c1cccc2c1OC(F)(F)O2	inconclusive: 27.3 µM [cytotoxic, partial curve]	
O=S1OC[C@@H]2[C@H](CO1)[C@]1(Cl)C(Cl)=C(Cl)[C@@]2(Cl)C1(Cl)Cl (stereo not given in full)	inconclusive: 61.1 µM [cytotoxic, partial curve]	
CC(C)(c1ccccc1)c1ccc(O)cc1	inconclusive: 68.6 µM [cytotoxic]	
